We go through 58 compounds from article PMC4336329 (PLoS ONE, 2015).

Screen size: about 310,000 compounds; about 2,200 (0.71%) showed an effect of 50% or more. The effect is printed as a negative number. The list shows a part of the results.

The target of this assay is human ether-à-go-go-related gene (hERG) potassium channel (human, UniProt Q12809). Briefly: primary screen, population patch clamp on CHO cells stably expressing hERG.
human ether-à-go-go-related gene (hERG) potassium channel, sequence (Q12809 whole entry, looked up): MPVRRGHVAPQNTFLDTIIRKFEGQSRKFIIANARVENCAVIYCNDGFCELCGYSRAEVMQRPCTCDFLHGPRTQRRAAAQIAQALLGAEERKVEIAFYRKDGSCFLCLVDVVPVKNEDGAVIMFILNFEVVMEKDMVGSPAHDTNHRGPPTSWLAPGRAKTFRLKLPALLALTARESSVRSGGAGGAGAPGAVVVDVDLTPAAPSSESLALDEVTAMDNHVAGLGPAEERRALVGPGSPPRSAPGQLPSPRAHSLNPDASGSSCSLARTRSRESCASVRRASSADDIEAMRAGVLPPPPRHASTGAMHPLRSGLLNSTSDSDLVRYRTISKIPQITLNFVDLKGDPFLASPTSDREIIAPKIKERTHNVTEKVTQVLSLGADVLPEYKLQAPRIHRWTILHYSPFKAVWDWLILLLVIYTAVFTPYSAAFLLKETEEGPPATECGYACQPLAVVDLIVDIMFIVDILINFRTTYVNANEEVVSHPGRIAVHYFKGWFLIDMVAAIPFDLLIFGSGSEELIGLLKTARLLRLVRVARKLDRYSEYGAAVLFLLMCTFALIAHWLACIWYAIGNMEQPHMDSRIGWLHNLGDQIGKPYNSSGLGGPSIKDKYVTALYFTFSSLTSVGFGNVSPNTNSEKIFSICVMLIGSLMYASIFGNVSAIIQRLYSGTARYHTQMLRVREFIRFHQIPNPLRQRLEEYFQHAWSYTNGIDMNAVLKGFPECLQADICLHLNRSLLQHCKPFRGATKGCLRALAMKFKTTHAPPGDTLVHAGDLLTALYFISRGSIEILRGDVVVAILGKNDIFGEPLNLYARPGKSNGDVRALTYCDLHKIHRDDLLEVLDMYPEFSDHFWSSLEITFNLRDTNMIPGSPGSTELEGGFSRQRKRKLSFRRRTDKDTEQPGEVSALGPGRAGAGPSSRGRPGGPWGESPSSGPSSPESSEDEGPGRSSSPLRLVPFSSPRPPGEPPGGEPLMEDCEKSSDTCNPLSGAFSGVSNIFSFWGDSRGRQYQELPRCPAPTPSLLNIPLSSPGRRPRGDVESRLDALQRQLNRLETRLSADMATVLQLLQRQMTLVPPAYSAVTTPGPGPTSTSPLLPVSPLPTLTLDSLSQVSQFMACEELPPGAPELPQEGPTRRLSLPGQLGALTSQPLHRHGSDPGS
Take `COc1ccc(-c2noc(CCC(=O)NC3CCCCC3)n2)cc1OC`: the “hERG current change (%, negative = inhibition) at 1uM” value is on record as 13.2%.

`O=C(NCC(c1ccco1)N1CCc2ccccc2C1)c1ccc([N+](=O)[O-])cc1` (stereo not shown): the “hERG current change (%, negative = inhibition) at 1uM” value is given as -7.15%.

For the compound `O=C(N/N=C/c1ccco1)c1ccc(Br)o1`, the “hERG current change (%, negative = inhibition) at 1uM” value was determined as 15.9%.

On to `Cc1cc([N+](=O)[O-])nn1CC(=O)N1CCc2ccccc2C1`, for which the “hERG current change (%, negative = inhibition) at 1uM” value turned out to be 2.28%.

Consider `CC(=O)c1ccc(NC2CC(O)C(O)CO2)cc1` (stereo not shown), for which the “hERG current change (%, negative = inhibition) at 1uM” value amounted to 6.92%.

In the case of `CCCCn1c(-c2sccc2C)n[nH]c1=S`, the “hERG current change (%, negative = inhibition) at 1uM” value is reported as 16%.

With `CC1CC(C)CN(c2cc(N(C)CCO)c([N+](=O)[O-])c3nonc23)C1` (stereo not shown), the “hERG current change (%, negative = inhibition) at 1uM” value is 0.257%.

With `O=C(CCNc1cc(Cl)cc(Cl)c1)c1cccs1`, the “hERG current change (%, negative = inhibition) at 1uM” value was 19.9%.

On to `Cc1ccccc1NC(=S)N1CCN(c2ccccc2)CC1`, for which the “hERG current change (%, negative = inhibition) at 1uM” value was determined as 16.9%.

Regarding `CCN(CC(=O)Nc1c(F)cccc1F)C(=O)Cc1ccccc1`, the “hERG current change (%, negative = inhibition) at 1uM” value came to 21.1%.

Consider `COc1ccc(CCNC(=O)c2nonc2N)cc1OC`, for which the “hERG current change (%, negative = inhibition) at 1uM” value came to 3.98%.

As for `O=C(N1CCCC1)n1c(Cc2ccccc2)nc2ccccc21`, the “hERG current change (%, negative = inhibition) at 1uM” value is listed as -5.36%.

In the case of `CCOc1ccc(Br)cc1S(=O)(=O)Nc1ccc(C(=O)Nc2ccccc2OC)cc1`, the “hERG current change (%, negative = inhibition) at 1uM” value came out at 7.7%.

Regarding `Cn1c(C(=O)NN)cc2cc(OCc3ccccc3)ccc21`, the “hERG current change (%, negative = inhibition) at 1uM” value is listed as 14.4%.

For the compound `COc1cccc(C2CC(=O)Nc3c2c(=O)[nH]c2ncnn32)c1` (stereo not shown), the “hERG current change (%, negative = inhibition) at 1uM” value was 2.55%.

Turning to `S=C(NCCC1=CCCCC1)Nc1ccc(Cl)cc1`, the “hERG current change (%, negative = inhibition) at 1uM” value was found to be 10.1%.

Regarding `CC(C)NC[C@@H](O)c1ccc(O)c(O)c1.O=C(O)C(O)C(O)C(=O)O`, the “hERG current change (%, negative = inhibition) at 1uM” value was found to be 15.6%.

In the case of `Cc1sc2nc3n(c(=O)c2c1C)CCCS3`, the “hERG current change (%, negative = inhibition) at 1uM” value is 1.27%.

For the compound `Cc1cccc(C)c1N1C(=O)c2ccccc2C1=O`, the “hERG current change (%, negative = inhibition) at 1uM” value was 1.61%.

Consider `CCOC(=O)C1(CCc2ccccc2)CCN(C(=O)c2cccc(C)n2)CC1`, for which the “hERG current change (%, negative = inhibition) at 1uM” value is recorded as 7.53%.

As for `O=C(Nc1ncnc2sc3c(c12)CCC3)c1ccco1`, the “hERG current change (%, negative = inhibition) at 1uM” value is 6.71%.

Consider `COc1ccccc1/C=C/C=N/n1c(COc2ccccc2)n[nH]c1=S`, for which the “hERG current change (%, negative = inhibition) at 1uM” value worked out at 11.9%.

As to `O=C(N/N=C/c1ccc(Cl)s1)C(O)c1ccccc1` (stereo not shown), the “hERG current change (%, negative = inhibition) at 1uM” value is 16.4%.

As to `CCN=C1SC(CC(=O)Nc2ccc3c(c2)OCO3)C(=O)N1CC` (stereo not shown), the “hERG current change (%, negative = inhibition) at 1uM” value is 8.07%.

As for `COCCNc1nc(N2CCCCC2)c2cnn(C)c2n1`, the “hERG current change (%, negative = inhibition) at 1uM” value was determined as 8.76%.

For `O=C(OC1Cn2c(=O)ccc(=O)n2C1)c1ccccc1`, the “hERG current change (%, negative = inhibition) at 1uM” value worked out at 10.7%.

As to `CN(C)Cc1c(C(=O)N/N=C/c2ccoc2)nnn1-c1nonc1N`, the “hERG current change (%, negative = inhibition) at 1uM” value stood at 1.15%.

In the case of `Cc1cc(C(=O)CN2C(=O)c3ccccc3S2(=O)=O)c(C)n1-c1ccccc1`, the “hERG current change (%, negative = inhibition) at 1uM” value worked out at 12.1%.

On to `CN(C)C(=O)N1CCN(S(=O)(=O)c2ccc3ccccc3c2)CC1`, for which the “hERG current change (%, negative = inhibition) at 1uM” value is 10.5%.

As for `CCOC(=O)Cn1ccc(NC(=O)COc2ccc(F)cc2)n1`, the “hERG current change (%, negative = inhibition) at 1uM” value is reported as 3.4%.

As to `Clc1ccc2nsnc2c1[NH2+]C1=NCCN1.[Cl-]`, the “hERG current change (%, negative = inhibition) at 1uM” value is 10.9%.

With `CCOC(=O)C1(Cc2ccc(O)cc2)NC(c2ccccc2F)C2C(=O)N(C)C(=O)C21` (stereo not shown), the “hERG current change (%, negative = inhibition) at 1uM” value amounted to 1.18%.

Take `O=C(CCc1nnc(Cc2ccc(-c3ccccc3)cc2)o1)NCCc1ccccn1`: the “hERG current change (%, negative = inhibition) at 1uM” value is reported as 6.67%.

For `Cc1[nH]c(=S)[nH]c(=O)c1CCOc1ccccc1`, the “hERG current change (%, negative = inhibition) at 1uM” value stood at 11.4%.

Consider `COC(=O)c1ccc(OC(=O)c2nn(C)cc2Cl)c(OC)c1`, for which the “hERG current change (%, negative = inhibition) at 1uM” value was found to be 11.5%.

Take `COC(=O)C1=C(C)NC(=O)C1(NC(=O)CN1CCCC1=O)C(F)(F)F` (stereo not shown): the “hERG current change (%, negative = inhibition) at 1uM” value worked out at 4.49%.

For `O=C(O)C(=O)O.O=[N+]([O-])c1cc2c(cc1CNCCc1ccc3c(c1)OCO3)OCO2`, the “hERG current change (%, negative = inhibition) at 1uM” value is listed as -13.2%.

As for `CCOc1ccc(C(C(=O)NCCOC)N(CCOC)C(=O)CCC(=O)Nc2ccccn2)cc1` (stereo not shown), the “hERG current change (%, negative = inhibition) at 1uM” value is on record as -8.39%.

On to `Cc1cc2c(N=NC(=O)CCc3ccccc3)c(O)[nH]c2cc1Br`, for which the “hERG current change (%, negative = inhibition) at 1uM” value worked out at 5.35%.

Take `Cc1ccc(NC(=S)N(Cc2ccc(Cl)cc2)Cc2ccc(C(=O)O)cc2)cc1Cl`: the “hERG current change (%, negative = inhibition) at 1uM” value is -0.489%.

As for `CC(C)C(=O)N1CCN(c2ccc([N+](=O)[O-])c(NC(C)c3ccccc3)c2)CC1` (stereo not shown), the “hERG current change (%, negative = inhibition) at 1uM” value was determined as 7.73%.

Regarding `CCOCCCNC(=O)CN1CCN(Cc2ccccc2C)C1=O`, the “hERG current change (%, negative = inhibition) at 1uM” value came to 4.41%.

As to `NC(=O)c1cc2ccccc2o/c1=N/NC(=O)c1cccc(Cl)c1`, the “hERG current change (%, negative = inhibition) at 1uM” value was determined as 1.94%.

In the case of `O=C(c1cc(-c2cccc(O)c2)on1)N1CCCC1`, the “hERG current change (%, negative = inhibition) at 1uM” value stood at 10.2%.

As for `O=C(CCC(=O)N1CCSc2ccccc21)Nc1cccc(F)c1`, the “hERG current change (%, negative = inhibition) at 1uM” value was found to be 3.36%.

Turning to `CCOC(=O)CSc1nc2cc(C(=O)N3CCC(C(N)=O)CC3)ccc2c(=O)n1C1CCCCC1`, the “hERG current change (%, negative = inhibition) at 1uM” value came out at 4.05%.

For `COc1ccc(-n2c(Cc3cc(=O)[nH]c(=O)[nH]3)nnc2SCC(=O)Nc2ccccc2)cc1`, the “hERG current change (%, negative = inhibition) at 1uM” value is 4.28%.

In the case of `CSCCC(NS(=O)(=O)c1ccc(Cl)c(Cl)c1)C(=O)O` (stereo not shown), the “hERG current change (%, negative = inhibition) at 1uM” value is 7.31%.

For `CCN(CC)S(=O)(=O)c1ccc(C(=O)OCC(=O)c2ccc3c(c2)NC(=O)CO3)cc1`, the “hERG current change (%, negative = inhibition) at 1uM” value is on record as 3.29%.

Consider `CC(C)CCNC(=O)CN(C(=O)CCC(=O)Nc1ccccn1)c1ccc2c(c1)OCCO2`, for which the “hERG current change (%, negative = inhibition) at 1uM” value worked out at 3.63%.

On to `Cc1ccccc1CSc1nnnn1-c1ccc(C(N)=O)cc1`, for which the “hERG current change (%, negative = inhibition) at 1uM” value worked out at 11.6%.

In the case of `COC(=O)CCC(=O)NC(=S)Nc1sc(C)c(C)c1C(N)=O`, the “hERG current change (%, negative = inhibition) at 1uM” value is reported as 8.93%.

As to `CCN(CC)C(=O)Cn1cnc2c1c(=O)n(C)c(=O)n2C`, the “hERG current change (%, negative = inhibition) at 1uM” value is -4.8%.

As to `NS(=O)(=O)c1ccc(NC(=O)CN2C(=O)CCC2=O)cc1`, the “hERG current change (%, negative = inhibition) at 1uM” value is reported as 2.51%.

In the case of `CCCn1c(SCC(=O)NCc2ccccc2)nnc1-c1ccncc1`, the “hERG current change (%, negative = inhibition) at 1uM” value is given as 11.1%.

Consider `O=S(=O)(NCc1ccc2c(c1)OCO2)c1cnc[nH]1`, for which the “hERG current change (%, negative = inhibition) at 1uM” value was 15%.

For the compound `COc1ccc(NC(=O)CSc2nc(N3CCCCC3)nc(N3CCCCC3)n2)cc1`, the “hERG current change (%, negative = inhibition) at 1uM” value stood at 7.24%.

As to `COc1ccccc1C(=O)NCC(=O)OCC(=O)c1ccc2c(c1)-c1ccccc1C2`, the “hERG current change (%, negative = inhibition) at 1uM” value is 4.07%.
